Measurements: PubChem BioAssay (NCATS)
Values joined by “and” are separate entries in the source; they are usually repeats but may differ in a detail not shown here. Equal entries are not always repeated. This list was built around the results that the source calls inconclusive (neither active nor inactive); the mix of calls is not that of the screen. Potencies of inconclusive entries are doubtful fits and often do not repeat. Active and inactive are the calls of the source. The call rests on the fitted dose curve; in most records, active means well fitted cell-killing curve with a large enough effect; inconclusive means small, poorly fitted or top-dose-only effect, or effect the other way; inactive means no such curve, though single readings can be large or run the other way.

assay: Viability qHTS for spleen associated tyrosine kinase inhibitor (SYKi) drug resistant MV4-11 cells (AID 1963824); conditions: SYKi-resistant MV4-11 viability, CellTiter-Glo, 72 h; series mostly up to 45 µM; further: nearly all actives have a fitted effect of over 35% in size
Summary of the method: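 SYK-inhibitor-resistant MV4-11 AML cells were seeded at 500 per well onto compound and cultured 72 hours (37 °C, 5% CO2). CellTiter-Glo was then added, and after 10 min at room temperature, luminescence gave viability.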
Potency means the concentration at half of the fitted maximal effect; tags describe the fitted curve by direction and shape.

Structure (SMILES)	Potency	viability, % of control
C[C@@H]1O[C@@H](OC[C@H]2O[C@@H](Oc3c(-c4ccc(O)c(O)c4)oc4cc(O)cc(O)c4c3=O)[C@H](O)[C@@H](O)[C@@H]2O)[C@H](O)[C@H](O)[C@H]1O	inactive	
CO[C@]1(NC(=O)CSC(F)F)C(=O)N2C(C(=O)O)=C(CSc3nnnn3CCO)CO[C@H]21	active: 5.8 µM	
Nc1ncnc2c1ncn2[C@@H]1O[C@H](CO)C[C@H]1O	inconclusive: 9.2 µM [cytotoxic, partial curve] and inactive	
CCC(C)C(=O)OC1CC(C)C=C2C=CC(C)C(CCC(O)CC(O)CC(=O)O)C21 (stereo not given)	inconclusive: 11.2 µM [cytotoxic, single point]	
O=C(/C=C/n1cnc(-c2cc(C(F)(F)F)cc(C(F)(F)F)c2)n1)NNc1cnccn1	active: 1.46 µM	
COc1ccc(-n2c(=O)[nH]c3cc(C(=O)NCc4ccc(Cl)cc4)sc3c2=O)nc1OC	inconclusive: 23.1 µM [cytotoxic, single point]	
C[C@@H]1O[C@@H](O[C@H]2[C@H](OC(=O)[C@]34CCC(C)(C)C[C@H]3C3=CCC5[C@@]6(C)C[C@H](O)[C@H](O[C@@H]7O[C@H](C(=O)O)[C@@H](O)[C@H](O)[C@H]7O)[C@@](C)(CO)C6[C@H](O)C[C@@]5(C)[C@]3(C)C[C@H]4O)O[C@@H](CO)[C@@H]2O)[C@H](O)[C@H](O)[C@H]1O[C@@H]1OC[C@@H](O)[C@H](O[C@H]2OC[C@](O)(CO)[C@H]2O)[C@H]1O (stereo not given in full)	inconclusive: 4.36 µM [cytotoxic, single point]	
C=C(C)[C@@H]1CC[C@]2(C)CC[C@]3(C)[C@H](CC[C@@H]4[C@@]5(C)CC[C@@H](O)C(C)(C)[C@@H]5CC[C@]43C)[C@@H]12	inactive	
CN1CCN(C(c2ccccc2)c2ccccc2)CC1	inactive and inconclusive: 20.6 µM [cytotoxic, single point]	
COc1cc([C@@H](O[C@@H]2O[C@H](CO)[C@@H](O)[C@H](O)[C@H]2O)[C@@H]2CO[C@H](c3ccc(O)c(OC)c3)[C@H]2CO)ccc1O	inconclusive: 6.32 µM [cytotoxic, partial curve, poor fit]	
CCC1C(=O)OC23C=C[C@@H]4C(C(=O)O)=CO[C@H](O[C@@H]12)[C@@H]43 (stereo not given in full)	inconclusive: 23.1 µM [cytotoxic, single point]	
O=C(O)c1cc(I)ccc1NC(=O)[C@H](Cc1ccccc1)NCc1ccccc1	inconclusive: 20.6 µM [cytotoxic, partial curve]	
CCCCC1C(=O)N(c2ccccc2)N(c2ccc(O)cc2)C1=O (stereo not given)	inconclusive: 10.6 µM [cytotoxic, partial curve]	
CC(=O)C1=C(C)N(c2cccc(C(F)(F)F)c2)C(=O)N[C@H]1c1ccc(C#N)nc1		inactive: 87% [at 9.25 µM]
CCC(CC)n1ccc2c(C(=O)NCc3c(C)cc(C)[nH]c3=O)cc(C#N)cc21	inconclusive: 14.6 µM [cytotoxic, partial curve, poor fit]	
COc1ccc(CCO[C@@H]2O[C@H](CO[C@H]3OC[C@](O)(CO)[C@H]3O)[C@@H](OC(=O)/C=C/c3ccc(O)c(O)c3)[C@H](O[C@@H]3O[C@@H](C)[C@H](O)[C@@H](O)[C@H]3O)[C@H]2O)cc1OC	inconclusive: 0.611 µM [cytotoxic, full curve, poor fit]	
COc1cc(-c2cccc(O)c2)cc2c1OCO2	inactive	
O=C(/C=C/N1C[C@@H]2C[C@@H]1CN2c1ccccn1)c1ccccc1O	inconclusive: 23.1 µM [cytotoxic, partial curve, poor fit]	
CCO/C([O-])=N/c1c[n+](N2CCOCC2)no1	inconclusive: 0.211 µM [rising, full curve, poor fit]	
CCN(CC)CCNC(=O)c1c(C)[nH]c(/C=C2\C(=O)Nc3ccc(Cl)cc32)c1C	active: 0.0146 µM	

Structure (SMILES)	Potency	viability, % of control
CCCCCCCCCCCCSCCOCCO	inconclusive: 0.0008 µM	
C=CS(=O)(=O)NC1CCN(C(=O)CNc2cc(I)c(Cl)cc2OC)CC1	active: 2.06 µM	
O=C(NCCCCCCCCNC(=O)C(Cl)Cl)C(Cl)Cl	inconclusive: 8.2 µM [cytotoxic, partial curve]	
C[C@]1(OC(=O)/C=C/c2ccccc2)C[C@H](O)[C@]2(O)C=CO[C@@H](O[C@@H]3O[C@H](CO)[C@@H](O)[C@H](O)[C@H]3O)C12 (stereo not given in full)	inconclusive: 10 µM [cytotoxic, single point]	
CC(C)(Oc1ccc(Cl)cc1)C(=O)O	inconclusive: 3.76 µM [cytotoxic, partial curve, poor fit]	
C=C1CCC2C(C)(C(=O)O)CCCC2(C)C1CC/C(C)=C\CO (stereo not given)	inactive	
CCc1c(Cl)c(O)c(Cl)c(O)c1C(=O)O[C@H]1[C@H](O)[C@H](OC)[C@H](OC/C2=C\C=C\C[C@H](O)/C(C)=C\[C@H](CC)[C@@H](O[C@@H]3OC(C)(C)[C@@H](OC(=O)C(C)C)[C@H](O)[C@@H]3O)/C(C)=C/C(C)=C/C[C@@H]([C@@H](C)O)OC2=O)O[C@@H]1C	active: 3.99 µM	
Nc1ccc(C(=O)NCC(=O)O)cc1	inactive	
COc1ccc(NC(=O)c2ccc(-c3ccc(C(N)=O)cc3C)cc2)cc1N1CCN(C)CC1	inconclusive: 18.4 µM [cytotoxic, single point]	
C=C1CCC2C(C)(C(=O)OC)CCCC2(C)C1CCC(C)CC(=O)O (stereo not given)	inactive	
CC(=O)OC(C)OC(=O)C(C)c1ccc(-c2ccccc2)c(F)c1 (stereo not given)	inactive	
C=C1CCC2C(C)(C)CCC[C@]2(C)[C@H]1CC/C(C)=C/C(=O)O (stereo not given in full)	inconclusive: 23.1 µM [cytotoxic, partial curve]	
O=C(O)CC(C(=O)O)n1c(O)c(C2=c3cc(Br)ccc3=NC2=O)sc1=S (stereo not given)	inconclusive: 7.42 µM [cytotoxic, partial curve]	
CCN(CC)CCOc1ccc(C(O)(Cc2ccc(Cl)cc2)c2ccc(C)cc2)cc1 (stereo not given)	inconclusive: 9.44 µM [cytotoxic, partial curve]	
COC(=O)c1ccc(N2CCN(C)CC2)c(NC(=O)c2cccc(OC)c2)c1	inactive	
Oc1ccc(C(O)CNCCCCCCNCC(O)c2ccc(O)c(O)c2)cc1O (stereo not given)	inactive	
CNC(=O)c1ccccc1Nc1nc(Nc2ccc(N3CCNCC3)cc2)ncc1Cl	inconclusive: 0.0092 µM [cytotoxic, full curve]	
CC1CCC2(C(=O)O)CCC3(C)C(=CCC4C5(C)CCC(OC(=O)/C=C/c6ccccc6)C(C)(C)C5CCC43C)C2C1C (stereo not given)	inactive	
C=C1CCC2C(C)(C(=O)O)CCCC2(C)C1CC/C(=C\CO)CO (stereo not given)	inactive	
CC1(C)CCC[C@]2(C)[C@H]3CC(=O)O[C@]3(C)CC[C@@H]12	inactive	
